Several values for one entry are separate records, joined by “and”; a condition that tells them apart may be missing. Identical values can stand only once. The inconclusive results got no clear call from the source; some entries with a clear call stand among them for comparison. Potencies of inconclusive entries are doubtful fits and often do not repeat. Some compounds were tested as several samples or in several runs, with calls that do not always agree. Activity calls are given as the source filed them. Calls come from the whole dose curve; as a rule, active = well fitted inhibition curve with a large enough effect; inconclusive = small, poorly fitted or top-dose-only effect; inactive = flat fitted curve, though single readings scatter.
experiment: P-glycoprotein substrates identified in KB-8-5-11 adenocarcinoma cell line, qHTS therapeutic library screen (AID 1346987); details: KB-8-5-11 (P-gp overexpressing) viability, CellTiter-Glo, 72 h; series mostly up to 44.5 µM; activity change, negative = cytotoxicity: at the top concentration; note: nearly all actives have a fitted effect of over 65% in size
Source text: The ATP-binding cassette transporters P-glycoprotein (P-gp) is known to limit brain penetration of many chemotherapy drugs. […] As such, we developed a high-throughput screen (HTS) to identify substrates of P-gp from a series of chemical libraries including the National Center for Advancing Translational Sciences Pharmaceutical Collection NPC, 2,816 compounds), testing a total of 10,804 compounds, most of which have known mechanisms of action. We used the CellTiter-Glo viability assay to test library compounds against the parental KB-3-1 human cervical adenocarcinoma cell line and the colchicine-selected sub-line KB-8-5-11 that over-expresses P-gp. KB-8-5-11 cells were also tested in the presence of a P-gp inhibitor (tariquidar) to assess reversability of transporter-mediated resistance. Of the tested compounds, a total of 90 P-gp substrates were identified including 55 newly identified P-gp substrates. Substrates were confirmed using an orthogonal killing assay against HEK-293 cells transfected with P-gp. As exemplars, we confirmed that […] (cyclin-dependent kinase inhibitor); AT9283, (Janus kinase 2/3 inhibitor); ispinesib (kinesin spindle protein inhibitor); gedatolisib (PKI-587, phosphoinositide 3-kinase/mammalian target of rampamycin inhibitor); GSK-690693 (AKT inhibitor); and KW-2478 (heat shock protein 90 inhibitor) were substrates , and direct ATPase stimulation was assessed. ABCG2 was also found to confer high levels of resistance to AT9283, GSK-690693 and gedatolisib, while ispinesib, AT7519 and KW-2478 were weaker substrates.
The HeLa derivative cell line, KB-3-1, and its colchicine-selected, P-gp-overexpressing subline, KB-8-5-11 were maintained in DMEM with 10% FCS and Pen/Strep with glutamine at 37 degree C in 5% CO2. For KB-8-5-11 cells, colchicine was added to the medium at a concentration of 100 ng/mL. HEK-293 cells transfected with empty vector (pcDNA) or vector containing human ABCB1 (MDR-19) or ABCG2 (R-5) have been described previously (Robey, Lin, Qiu, Chan & Bates, 2011) and were maintained in EMEM supplemented with 10% FCS, Pen/Strep and glutamine with 2 mg/ml G418 to select for the expression of the transporter. Cultures were confirmed to be free of mycoplasma infection using the MycoAlert Mycoplasma Detection Kit (Lonza, Walkersville, MD). For the screen, assay medium was identical to culture medium except for KB-8-5-11 where colchicine was excluded from the medium.
All cell lines were plated into 1536-well plates at 500 cells/well in 5 uL media. Compounds were then pinned in dose-response using a 1536-head pin tool (Kalypsis, San Diego, CA) and plates were incubated at 37 degree C in 5% CO2 for an additional 72 h. CellTiter-Glo reagent (Promega) was dispensed into the wells, incubated for 5 min and luminescence was read on a ViewLux instrument (Perkin-Elmer). Cytotoxic compounds were defined as those that yielded a curve class of -1.1, -1.2, -2.1, -2.2, -2.3, or -2.4, a maximum response of >50% and an AC50 of < 10 uM. Cherry-picked hits from screening analysis were tested with both the KB pair of cell lines, and the pcDNA (empty vector control) and MDR-19 (P-gp overexpressing) pair were tested, in the absence and presence of tariquidar.
% is set by controls: 0 for no effect and ±100 for the full control effect; potency is the fitted concentration of half-maximal effect; tags give direction and shape of the fitted curve.

SMILES | Potency | activity change, negative = cytotoxicity
CC(=O)Oc1cc2c(s1)CCN(C(C(=O)C1CC1)c1ccccc1F)C2 (stereo not given) | inconclusive: 16.6 µM [inhibitor, partial curve] | 
CCCCCCCCOc1ccccc1C(=O)Nc1ccc(C(=O)OCC[N+](C)(CC)CC)cc1 | inconclusive: 20.9 µM [inhibitor, single point] | 
CO[C@H]1C(=O)[C@]2(C)[C@@H](OC)C[C@H]3OC[C@@]3(OC(C)=O)[C@H]2[C@H](OC(=O)c2ccccc2)[C@]2(O)C[C@H](OC(=O)[C@H](O)[C@@H](NC(=O)OC(C)(C)C)c3ccccc3)C(C)=C1C2(C)C | active: 0.001 µM | 
COc1ccc2nc(NC(=O)Nc3ccccc3)sc2c1 | inconclusive: 16.4 µM [inhibitor, single point] | 
OCCC#Cc1nc(-c2ccc(F)cc2)c(-c2ccncc2)n1CCCc1ccccc1 | inconclusive: 23.5 µM [inhibitor, single point] and inconclusive: 16.4 µM [inhibitor, partial curve] | 
C=C1C(=O)[C@@]23C(CC[C@@H]1[C@H]2O)[C@@]12CO[C@]3(O)[C@@H](O)[C@@H]1C(C)(C)CC[C@@H]2O (stereo not given in full) | inconclusive: 29.6 µM [inhibitor, single point] and inconclusive: 18.4 µM [inhibitor, single point] | 
Nc1ccc(-c2ccc3ncc4ccc(=O)n(-c5cccc(C(F)(F)F)c5)c4c3c2)cn1 | active: 1 nM and active: 36.6 nM | 
O=C(C=Cc1ccc(O)cc1)c1ccc(O)cc1O | inconclusive: 26.4 µM [inhibitor, single point] | 
OC(CN1CCC(Cc2ccc(F)cc2)CC1)c1ccc(Cl)cc1 (stereo not given) | inconclusive: 14.6 µM [inhibitor, partial curve] and inactive | 
CN1CCC[C@@H]1Cc1c[nH]c2ccc(CCS(=O)(=O)c3ccccc3)cc12 | inactive | 
C[C@@H]1CN(Cc2ccc(F)cc2)[C@@H](C)CN1C(=O)c1cc2c(C(=O)C(=O)N(C)C)cn(C)c2cc1Cl | inactive and inconclusive: 18.4 µM [inhibitor, partial curve, poor fit] | 
NC(=O)C(c1ccccc1)(c1ccccc1)[C@@H]1CCN(CCc2ccc3c(c2)CCO3)C1 | inconclusive: 7.31 µM [inhibitor, partial curve] | 
O=S1(=O)c2cccc3cccc(c23)N1CCCN1CCN(c2ccc(F)cc2)CC1 | inconclusive: 20.6 µM [inhibitor, single point] | 
CN1[C@@H](CC(=O)c2ccccc2)CCC[C@H]1C[C@H](O)c1ccccc1 | inconclusive: 23.1 µM [inhibitor, partial curve, poor fit] | 
COc1ccccc1OCC(O)CN1CCN(CC(=O)Nc2c(C)cccc2C)CC1 (stereo not given) | inconclusive: 29.1 µM [inhibitor, single point] | 
CN(C)c1ccc2nc3ccc(=[N+](C)C)cc-3sc2c1 | active: 3.32 µM and active: 6.51 µM | 
COC(=O)C1=C(C)NC(C)=C(C(=O)OC)C1c1ccccc1[N+](=O)[O-] | inconclusive: 18.4 µM [inhibitor, single point] | 
COc1cc(Oc2ccnc3cc(OC)c(OC)cc23)ccc1NC(=O)NC(C)c1nccs1 (stereo not given) | inconclusive: 18.7 µM [inhibitor, partial curve] | 
CCC(C)SSc1ncc[nH]1 (stereo not given) | inconclusive: 37.2 µM [inhibitor, single point] | 
CC1(C)CCC2=C(O1)c1ccccc1C(=O)C2=O |  | inactive: -10.5%

SMILES | Potency | activity change, negative = cytotoxicity
CCOc1cc(NC(C)=O)ccc1C(=O)OC |  | inactive: -4.13%
COCCn1c2c([n+](Cc3cnccn3)c1C)C(=O)c1ccccc1C2=O | inconclusive: 16.6 µM [inhibitor, partial curve, poor fit] | 
c1ccc2occc2c1 |  | inactive: 9.03% [at 93.4 µM]
O=C(O)c1cccc(-c2noc(-c3ccccc3F)n2)c1 | inconclusive: 23.1 µM [inhibitor, single point] | 
O=c1cc(N2CCOCC2)oc2c(-c3ccccc3)cccc12 | active: 5.9 µM and active: 20 µM | 
Cc1c(OCC(F)(F)F)ccnc1CS(=O)c1nc2ccccc2[nH]1 (stereo not given) | inconclusive: 23.1 µM [inhibitor, single point] | 
CNCC[C@H](Oc1cccc2ccccc12)c1cccs1 | inconclusive: 37.2 µM [inhibitor, partial curve, poor fit] | 
Nc1cc(-c2ccncc2)c[nH]c1=O | inconclusive: 16.4 µM [inhibitor, single point] | 
C[C@H](NC(=O)c1sccc1OCc1ccc(Cl)cc1)c1ccccc1 | active: 14.8 µM | 
Cc1cc(C)c(/C=C2\C(=O)Nc3ccccc32)[nH]1 | inconclusive: 18.4 µM [inhibitor, single point] and inconclusive: 29.1 µM [inhibitor, single point] | 
COc1ccc2cc([C@H](C)C(=O)O)ccc2c1 | inactive | 
CCCc1nc2c(C)cc(-c3nc4ccccc4n3C)cc2n1Cc1ccc(-c2ccccc2C(=O)O)cc1 | inconclusive: 29.1 µM [inhibitor, single point] | 
CCCC(=O)OC[C@@H](OC(=O)CCC)[C@@H](OC(=O)CCC)[C@H](Cn1c2nc(=O)[nH]c(=O)c-2nc2cc(C)c(C)cc21)OC(=O)CCC | inconclusive: 16.4 µM [inhibitor, partial curve] | 
CC[C@H](C)[C@H](N)C(=O)O |  | inactive: 7.19%
CCN(CC)C(=S)SSC(=S)N(CC)CC | active: 0.0418 µM | 
CN1CC(=O)N2C(Cc3c([nH]c4ccccc34)[C@H]2c2ccc3c(c2)OCO3)C1=O (stereo not given in full) | inconclusive: 14.8 µM [inhibitor, partial curve] | 
CC[C@]1(O)C[C@H]2CN(CCc3c([nH]c4ccccc34)[C@@](C(=O)OC)(c3cc4c(cc3OC)N(C=O)[C@H]3[C@@](O)(C(=O)OC)[C@H](OC(C)=O)[C@]5(CC)C=CCN6CC[C@]43[C@@H]65)C2)C1 | inconclusive: 20.6 µM [inhibitor, single point] | 
O=C1c2c(O)ccc(O)c2C(=O)c2c(NCCNCCO)ccc(NCCNCCO)c21 | inconclusive: 4.95 µM [inhibitor, partial curve] and active: 5.26 µM | 
CC1(C)OC2=C(C(=O)c3ccccc3C2=O)[C@H](NCc2ccccc2)[C@H]1O | active: 9.35 µM | 
N#CC(=C(N)Sc1ccccc1N)C(C#N)=C(N)Sc1ccccc1N | inconclusive: 37.2 µM [inhibitor, partial curve, poor fit] | 
